Measured values: paper PMC12136788
This is one part of the list.

T1: UNK ZnF1-3 (human, UniProt Q9C0B0 31-174)
T1 sequence: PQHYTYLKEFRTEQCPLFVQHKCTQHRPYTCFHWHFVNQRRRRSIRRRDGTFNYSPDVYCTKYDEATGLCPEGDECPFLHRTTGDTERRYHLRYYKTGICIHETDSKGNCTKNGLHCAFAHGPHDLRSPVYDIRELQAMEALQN

B1: 124028550_124028670_1610_ncRNA_ENSMUSG00000049550_ENSMUST00000125340|mouse|control|control (ssRNA)
RNA: GGGAGUUCUACAGUCCGACGAUCGAUUCUUUUAAAAAUAUAUACACAUAUAAUAUAUAGACGUUGAAAUUAUGUAAAACCAGUAAAGAAAACACCACUGUCGGUCCAUGGGUGCAGCAUAUAGAUUAGAAAAUGUCCCCACAGCAACAGAGGAUUGAGCAUCA
B2: chr4:95690885:95690886:+_ENSMUSG00000028572_ENSMUST00000156910|mus_mus|mus_mus_mus_hu_False|8_38 (ssRNA)
RNA: GGGAGUUCUACAGUCCGACGAUCUUUAGAAAAUGUUAAAUACCAUGCUAAAAUAUUUUCAAAGGCUUAUUUUAUUUUACCAGAAGUCACAGGCAAGCAGACACCAUAAGAAUAUAUGAAAAUGAAACAACAGUGUAUAACUGUCAACAGAGGAUUGAGCAUCA
B3: chr16:17261293:17261294:+_ENSMUSG00000050240_ENSMUST00000090190|mus_mus|FALSE|FALSE (ssRNA)
RNA: GGGAGUUCUACAGUCCGACGAUCGACAUGCUCAGUGAGGGGCUCUGCUCCUAGUCCCUGAUUUUCUGCAGAUGAGGGUACCUACAGCCUGGGAGGCCACACAGACCUUGUGUCCUAGGCCUUAAGUGCUGGUAGGUGGGUGGGCAACAGAGGAUUGAGCAUCA
B4: chr19:27315782:27315783:+_ENSMUSG00000024924_ENSMUST00000167487|mus_mus|FALSE|FALSE (ssRNA)
RNA: GGGAGUUCUACAGUCCGACGAUCAGCCGCAUCAGUCCAGUAGAUGGUCUUGUACACCCAAUCAACAGCAAUGGCUGCAGGAUUAUAGACAUUGUCGAUCAUUUUAAAAUGUCUACCAACCUUGUCAUCAAUUGAGGCACUGAACAACAGAGGAUUGAGCAUCA
B5: 87906242_87906362_2047_CDS_ENSMUSG00000022019_ENSMUST00000168275|mouse|control|control (ssRNA)
RNA: GGGAGUUCUACAGUCCGACGAUCUUUUGCAUACUCCACAGGAAUAGAUGAUUCUAUCACCUUUUCAGGCUUAAUUGGCCCAGACCUUCUUUUGGGCCCACUAUUAUAAAAUAUUUUAUCAUCGUAGGGCACAGCUGUGACAGGCAACAGAGGAUUGAGCAUCA
B6: 48955391_48955511_1705_3pUTR_ENSG00000139687_ENST00000267163|human|control|control (ssRNA)
RNA: GGGAGUUCUACAGUCCGACGAUCUCAAGUUGCCUUCUGCUUUGAUAAAACUUUCGAUCACUUUGUAAAAAUCAAAGGCUUUUAAAUUAAGCACAUUCAGAAUCCAUGGGAAAGACAAAUCUGUUCCAGAAUCAAGAUUCUGAGCAACAGAGGAUUGAGCAUCA
B7: chr7:35913284:35913285:+_ENSG00000122545_ENST00000399035|perfect_dup|motif|central (ssRNA)
RNA: GGGAGUUCUACAGUCCGACGAUCAUCAGGCAUCUGACGUCUGUUCACUCGUGAUUCUGCAUUUAGGUAGUCCUCAAAUUUACGGUCAAUGUAGUCGAUAACAGGCUGCCAGCAAUUACUAUUAUCCACUGCAUCUCCAAAUCCCAACAGAGGAUUGAGCAUCA
B8: chr2:126738436:126738437:-_ENSMUSG00000027366_ENSMUST00000028844|mus_hu|FALSE|FALSE (ssRNA)
RNA: GGGAGUUCUACAGUCCGACGAUCAGGCAUGAGGCACACACUCAUUACUGAGAAAUAGAUCAGUUUUGGUACUCUGAUGACUACUGGCAACUUUUCAUUAUUUCCAAAAGGUCCAGCUGCGAGUUCAACCAUGAUACUCUCACCCAACAGAGGAUUGAGCAUCA
B9: chr10:75830775:75830776:+_ENSG00000035403_ENST00000372755|perfect_dup|FALSE|FALSE (ssRNA)
RNA: GGGAGUUCUACAGUCCGACGAUCCAUAGUCUCCACCACCUCUGCCACUGUAAGAUAUUCCAAAAUUCCUUUGCAAACUCUAAUAAUUUUACGGACCUCAGCCUCAUCGAAGGUAAGGAGCAGGUCUGAUGUUCCAGAGAGGAUCAACAGAGGAUUGAGCAUCA
B10: chr16:67133199:67133200:+_ENSG00000067955_ENST00000412916|hu_hu|motif|central (ssRNA)
RNA: GGGAGUUCUACAGUCCGACGAUCAUGCUACUAAGUUUUUAGCCUGUAAAUAAUGCAAACAACAUCAGCAGUUUUAAAAUGCGGUAGACUAUAAAAACACAAAAGGAAAUGGGGCAAACAAAACAAAAAAUAAGAAUGCUCAUCCAACAGAGGAUUGAGCAUCA
B11: 47489978_47490098_5123_3pUTR_ENSG00000149187_ENST00000395290|human|control|control (ssRNA)
RNA: GGGAGUUCUACAGUCCGACGAUCUUACUUCAAAGUUGUCUUUAAAACUAAGCACACAGAGAAACAAAGCCUAGAAACGGACUGGCUGUGUGUUCACAGAAAUACAAACACCACGCGGUAUGUGCUAGUAGGGCUGCUCUGAAGCAACAGAGGAUUGAGCAUCA
B12: chr3:94683992:94683993:+_ENSMUSG00000038902_ENSMUST00000107270|mus_mus|FALSE|FALSE (ssRNA)
RNA: GGGAGUUCUACAGUCCGACGAUCGUUAACGUUGCCAUCGGGACCUGGCAGAACACUAGCCACAAGGAAGGACCGCUGAACUAGCUCUGGGGAGUCCCCAAUGACACCCAGCACCUCUCCCAGCCAGACCAACACCAGCUGAAGCAACAGAGGAUUGAGCAUCA
B13: chr1:94914716:94914717:-_ENSMUSG00000014602_ENSMUST00000171796|mus_mus|FALSE|FALSE (ssRNA)
RNA: GGGAGUUCUACAGUCCGACGAUCAAACAGAACACAGUCUUAUAGUUAAUGUCUCAGAGGACUGUUUCAACGCCACUAACUAAUGUAUAUUAAUUAUAAGUCUGUCUAUGCUUAAAAAAAUAUUAGAACAGCGGCAAUACCCUGCAACAGAGGAUUGAGCAUCA
B14: chr9:72466633:72466634:+_ENSMUSG00000037674_ENSMUST00000093820|mus_mus|motif|central (ssRNA)
RNA: GGGAGUUCUACAGUCCGACGAUCCUGAUAUGACUGUCCAGGUACAGCAAAAGCAUGAGGUUUCCUGAAACGAUCUUCGGCGGGUUCCUGAUAGCUUGGGAGAAUGCCAUGACCAGAAACCGAUGAAUUACCAACCCCACCAUACAACAGAGGAUUGAGCAUCA
B15: 26785022_26785142_3734_CDS_ENSMUSG00000024921_ENSMUST00000025862|mouse|control|control (ssRNA)
RNA: GGGAGUUCUACAGUCCGACGAUCCAGGAAGGCCCUCCGCUCGUGGCUGGAUGACUUCUGGUCAAACAUGCCUGCUUGGAUAACCUUCUGAUCCACGUUCAGCUUGUACUUGGCAGCCGCGAGAAUCUUUUCCUCCACACUGUUCAACAGAGGAUUGAGCAUCA
B16: chr7:151048522:151048523:+_ENSG00000013374_ENST00000566856|hu_mus|hu_hu_hu_mus_True|28_28 (ssRNA)
RNA: GGGAGUUCUACAGUCCGACGAUCCUGUUUCUUAUUUAUUACGAUCUUGAUGUAAUUUUCUUGAAAUCCGAAAGUUUCAGCUAUUUGACACCUCAGGUCUCUACCAGUGAUGUGCAAGCGGGUCUCCAACAAGCUUUUCUUAUCCAACAGAGGAUUGAGCAUCA
B17: chr18:48606039:48606040:+_ENSG00000141646_ENST00000342988|hu_mus|FALSE|FALSE (ssRNA)
RNA: GGGAGUUCUACAGUCCGACGAUCAGUAUACAUGUGUGUCUGUGGUACAGUCAAUGUGUCUUAACUCCUCCACUUCAAUCUCUACAAAGUCACCGCCAAGUGAUCAAGGAUGGCAAACACAGGGCUUAUAACCAAAAGGUAUAACAACAGAGGAUUGAGCAUCA
B18: chr4:39779992:39779993:+_ENSG00000078140_ENST00000510719|hu_mus|motif|central (ssRNA)
RNA: GGGAGUUCUACAGUCCGACGAUCACUCAGAAGCAGUUCUGUUGCAGUCUCUACAUCCCAUGAUUUUGAAGACAAGGCCACGGUUACUGCGUUCCUAUCAAAACCCAUAGCACAGAGGUUUUCUAUUUUUUUGGUGUAUUCUGGCAACAGAGGAUUGAGCAUCA
B19: chr1:39494564:39494565:+_ENSG00000168653_ENST00000372967|hu_hu|hu_hu_hu_mus_True|98_98 (ssRNA)
RNA: GGGAGUUCUACAGUCCGACGAUCAUGCAUUCGCCUCAUCGUUUUCUACCGAAGCAAGCACUCUUCGAAGUCAUCGAACUCUAUCUUGCACUCCUUUUUCGCCCGGGUCCCACCGAUCCCGUGUGCACACUCUAUCCACUCUUUCAACAGAGGAUUGAGCAUCA
B20: 42638195_42638315_1313_CDS_ENSMUSG00000025184_ENSMUST00000026188|mouse|control|control (ssRNA)
RNA: GGGAGUUCUACAGUCCGACGAUCUGCACUCAUUUCUAUAUAAUCUGAGAAAUUUCUCAUGUUGCCACUACUCUCACCAGAUUCUCCAACUGCACCUGUACAAGAGCUGCCUUCAGUUACAGGGUCACAAGCUGUACCUGCAAUCAACAGAGGAUUGAGCAUCA
B21: 125499526_125499646_756_3pUTR_ENSMUSG00000091337_ENSMUST00000164756|mouse|control|control (ssRNA)
RNA: GGGAGUUCUACAGUCCGACGAUCCUGUGAGACCAAAGAGGAACGAUUUGGUCUUUUUCUCCUCGCGAUUCUCAGGUUUAACACUCCUCCUUCCUCGAUUCUCCUUUUCCACAAUGCAUGGUCAUUCACUGUCCCGUCUUCUAUCAACAGAGGAUUGAGCAUCA
B22: chr3:182775190:182775191:-_ENSG00000078070_ENST00000265594|hu_hu|FALSE|FALSE (ssRNA)
RNA: GGGAGUUCUACAGUCCGACGAUCCUGCACACUACAGUCUCUUUCAAACAAGUACACAGCAUUGCCAUGGUGAUCACCAAACACCUGGACUUCUACAUGCCUCGGUGUGUCUACAAACUUCUCGAUCAGCAUAGCAUCAUCAUUCAACAGAGGAUUGAGCAUCA

Target: T1, UNK ZnF1-3
Assay: nsRBNS (natural sequence RNA bind-n-seq); RBNS binding buffer (assumed for nsRBNS): 25 mM Tris pH 7.5, 150 mM KCl, 3 mM MgCl2, 0.01% Triton X-100, 500 ug/ml BSA, 20 U/ml SUPERase-In, 4 C; UNK is unkempt and MSI1 is Musashi-1; names of the RNAs are library labels; protein concentration not given here; high values mean tight binding

Row | Binder | binding signal [enrichment R]
1 | B1 | 2.92
2 | B2 | 1.89
3 | B3 | 0.639
4 | B4 | 0.459
5 | B5 | 0.927
6 | B6 | 0.99
7 | B7 | 1.1
8 | B8 | 1.03
9 | B9 | 1.38
10 | B10 | 2.09
11 | B11 | 1.14
12 | B12 | 1.06
13 | B13 | 1.07
14 | B14 | 1.21
15 | B15 | 0.568
16 | B16 | 0.629
17 | B17 | 1.49
18 | B18 | 0.657
19 | B19 | 0.73
20 | B20 | 1.32
21 | B21 | 0.473
22 | B22 | 1.12
